# This is one part of the list.
# B1: GNAT (Pseudomonas aeruginosa), Q9HV14 (protein)
# chain: MQLSHRPAETGDLETVAGFPQDRDELFYCYPKAIWPFSVAQLAAAIAERRGSTVAVHDGQVLGFANFYQWQHGDFCALGNMMVAPAARGLGVARYLIGVMENLAREQYKARLMKISCFNANAAGLLLYTQLGYQPRAIAERHDPDGRRVALIQMDKPLEP
# Assays:
# Assay in all cases: glycan array binding signal (z-score within array); higher = stronger binding
# Conditions in all cases: glycan notation: IUPAC condensed, linker removed
# [1] = biological target: Fuc(a1-2)Gal(b1-4)[Fuc(a1-3)]GlcNAc
# Method in brief: (§1)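 From the Consortium for Functional Glycomics database, 3228 arrays were curated, keeping only those whose protein sequence was available. Binding is given as a within-array Z-score averaged across arrays sharing a protein sequence and across linkers. Negative Z-scores can be read as non-binding.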
# [2] = biological target: Fuc(a1-2)Gal(b1-4)[Fuc(a1-3)]GlcNAc(b1-2)Man(a1-3)[Fuc(a1-2)Gal(b1-4)[Fuc(a1-3)]GlcNAc(b1-2)Man(a1-6)]Man(b1-4)GlcNAc(b1-4)GlcNAc
# Method in brief: as §1
# [3] = biological target: Fuc(a1-2)Gal(b1-4)[Fuc(a1-3)]GlcNAc(b1-2)[Fuc(a1-2)Gal(b1-4)[Fuc(a1-3)]GlcNAc(b1-4)]Man(a1-3)[Fuc(a1-2)Gal(b1-4)[Fuc(a1-3)]GlcNAc(b1-2)Man(a1-6)]Man(b1-4)GlcNAc(b1-4)GlcNAc
# Method in brief: as §1
# [4] = biological target: Fuc(a1-2)Gal(b1-4)[Fuc(a1-3)]GlcNAc(b1-3)Gal(b1-4)[Fuc(a1-3)]GlcNAc
# Method in brief: as §1
# [5] = biological target: Fuc(a1-2)Gal(b1-4)[Fuc(a1-3)]GlcNAc(b1-3)Gal(b1-4)[Fuc(a1-3)]GlcNAc(b1-3)Gal(b1-4)[Fuc(a1-3)]GlcNAc
# Method in brief: as §1
# [6] = biological target: Fuc(a1-2)Gal(b1-4)[Fuc(a1-3)]GlcNAc(b1-3)GalNAc
# Method in brief: as §1
# Fuc(a1-2)Gal6S(b1-4)Glc = biological target: Fuc(a1-2)Gal6S(b1-4)Glc
# Method in brief: as §1
# [7] = biological target: Fuc(a1-2)Gal6S(b1-4)Glc6S
# Method in brief: as §1
# [8] = biological target: Fuc(a1-2)Gal6S(b1-4)GlcNAc
# Method in brief: as §1
# Fuc(a1-2)[Gal(a1-3)]Gal = biological target: Fuc(a1-2)[Gal(a1-3)]Gal
# Method in brief: as §1
# [9] = biological target: Fuc(a1-2)[Gal(a1-3)]Gal(b1-3)GalNAc
# Method in brief: as §1
# [10] = biological target: Fuc(a1-2)[Gal(a1-3)]Gal(b1-3)GlcNAc
# Method in brief: as §1
# [11] = biological target: Fuc(a1-2)[Gal(a1-3)]Gal(b1-3)GlcNAc(b1-2)Man(a1-3)[Fuc(a1-2)[Gal(a1-3)]Gal(b1-3)GlcNAc(b1-2)Man(a1-6)]Man(b1-4)GlcNAc(b1-4)GlcNAc
# Method in brief: as §1
# [12] = biological target: Fuc(a1-2)[Gal(a1-3)]Gal(b1-3)GlcNAc(b1-2)Man(a1-3)[Fuc(a1-2)[Gal(a1-3)]Gal(b1-3)GlcNAc(b1-2)Man(a1-6)]Man(b1-4)GlcNAc(b1-4)[Fuc(a1-6)]GlcNAc
# Method in brief: as §1
# [13] = biological target: Fuc(a1-2)[Gal(a1-3)]Gal(b1-3)GlcNAc(b1-3)GalNAc
# Method in brief: as §1
# [14] = biological target: Fuc(a1-2)[Gal(a1-3)]Gal(b1-4)Glc
# Method in brief: as §1
# [15] = biological target: Fuc(a1-2)[Gal(a1-3)]Gal(b1-4)GlcNAc
# Method in brief: as §1
# [16] = biological target: Fuc(a1-2)[Gal(a1-3)]Gal(b1-4)GlcNAc(b1-2)Man(a1-3)[Fuc(a1-2)[Gal(a1-3)]Gal(b1-4)GlcNAc(b1-2)Man(a1-6)]Man(b1-4)GlcNAc(b1-4)GlcNAc
# Method in brief: as §1
# [17] = biological target: Fuc(a1-2)[Gal(a1-3)]Gal(b1-4)GlcNAc(b1-2)Man(a1-3)[Fuc(a1-2)[Gal(a1-3)]Gal(b1-4)GlcNAc(b1-2)Man(a1-6)]Man(b1-4)GlcNAc(b1-4)[Fuc(a1-6)]GlcNAc
# Method in brief: as §1
# [18] = biological target: Fuc(a1-2)[Gal(a1-3)]Gal(b1-4)GlcNAc(b1-3)GalNAc
# Method in brief: as §1
# [19] = biological target: Fuc(a1-2)[Gal(a1-3)]Gal(b1-4)[Fuc(a1-3)]Glc
# Method in brief: as §1
# [20] = biological target: Fuc(a1-2)[Gal(a1-3)]Gal(b1-4)[Fuc(a1-3)]GlcNAc
# Method in brief: as §1
# [21] = biological target: Fuc(a1-2)[Gal(a1-3)]Gal(b1-4)[Fuc(a1-3)]GlcNAc(b1-3)GalNAc
# Method in brief: as §1
# [22] = biological target: Fuc(a1-2)[Gal(a1-4)]Gal(b1-4)GlcNAc
# Method in brief: as §1
# [23] = biological target: Fuc(a1-2)[GalNAc(a1-3)]Gal
# Method in brief: as §1
# [24] = biological target: Fuc(a1-2)[GalNAc(a1-3)]Gal(b1-3)GalNAc(a1-3)[Fuc(a1-2)]Gal(b1-4)GlcNAc
# Method in brief: as §1
# [25] = biological target: Fuc(a1-2)[GalNAc(a1-3)]Gal(b1-3)GlcNAc
# Method in brief: as §1
# [26] = biological target: Fuc(a1-2)[GalNAc(a1-3)]Gal(b1-3)GlcNAc(b1-2)Man(a1-3)[Fuc(a1-2)[GalNAc(a1-3)]Gal(b1-3)GlcNAc(b1-2)Man(a1-6)]Man(b1-4)GlcNAc(b1-4)GlcNAc
# Method in brief: as §1
# [27] = biological target: Fuc(a1-2)[GalNAc(a1-3)]Gal(b1-3)GlcNAc(b1-2)Man(a1-3)[Fuc(a1-2)[GalNAc(a1-3)]Gal(b1-3)GlcNAc(b1-2)Man(a1-6)]Man(b1-4)GlcNAc(b1-4)[Fuc(a1-6)]GlcNAc
# Method in brief: as §1
# [28] = biological target: Fuc(a1-2)[GalNAc(a1-3)]Gal(b1-3)GlcNAc(b1-3)GalNAc
# Method in brief: as §1
binder,measurement,setting,value
B1,glycan array binding signal (z-score),[1],-0.324
same,glycan array binding signal (z-score),[2],3.5
same,glycan array binding signal (z-score),[3],2.59
same,glycan array binding signal (z-score),[4],-0.293
same,glycan array binding signal (z-score),[5],-0.411
same,glycan array binding signal (z-score),[6],4.04
same,glycan array binding signal (z-score),Fuc(a1-2)Gal6S(b1-4)Glc,-0.374
same,glycan array binding signal (z-score),[7],-0.325
same,glycan array binding signal (z-score),[8],-0.434
same,glycan array binding signal (z-score),Fuc(a1-2)[Gal(a1-3)]Gal,-0.448
same,glycan array binding signal (z-score),[9],-0.312
same,glycan array binding signal (z-score),[10],-0.312
same,glycan array binding signal (z-score),[11],-0.404
same,glycan array binding signal (z-score),[12],-0.374
same,glycan array binding signal (z-score),[13],-0.379
same,glycan array binding signal (z-score),[14],-0.398
same,glycan array binding signal (z-score),[15],-0.452
same,glycan array binding signal (z-score),[16],-0.485
same,glycan array binding signal (z-score),[17],-0.442
same,glycan array binding signal (z-score),[18],-0.398
same,glycan array binding signal (z-score),[19],-0.469
same,glycan array binding signal (z-score),[20],2.64
same,glycan array binding signal (z-score),[21],1.12
same,glycan array binding signal (z-score),[22],-0.398
same,glycan array binding signal (z-score),[23],-0.309
same,glycan array binding signal (z-score),[24],-0.345
same,glycan array binding signal (z-score),[25],-0.353
same,glycan array binding signal (z-score),[26],-0.408
same,glycan array binding signal (z-score),[27],-0.26
same,glycan array binding signal (z-score),[28],5.4
